# Data published in the supplement of paper PMC8728848.
# This is one part of the list.
# B1: DrGRIFIN (Danio rerio), Q6DGJ1 (protein)
# chain: MTLRFEASCPDGLCPGWSVILKGETPPEASKFEINFLCDRDDRVAFHFNPRFTESDIICNSYMANRWGQEERCNHFPLGVEEPFQIEIYSDNDHFHVYIDKAKVMQYKHRVEDLKTITKLQVVNDVKISSLEITKKLFY
# Key:
# Assay in all cases: glycan array binding signal (z-score within array); higher = stronger binding
# Details in all cases: glycan notation: IUPAC condensed, linker removed
# [1] = biological target: Fuc(a1-2)Gal(b1-4)GlcNAc(b1-3)Gal(b1-4)GlcNAc(b1-3)Gal(b1-4)GlcNAc
# Outline: (§1)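 Negative Z-scores can be read as non-binding. The Z-score is calculated within each array and then averaged across arrays of one protein sequence at different concentrations or buffers and across linkers. Arrays, 3228 in all, were curated from the Consortium for Functional Glycomics database and kept only where the protein sequence was available.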
# [2] = biological target: Fuc(a1-2)Gal(b1-4)GlcNAc(b1-3)GalNAc
# Outline: as §1
# [3] = biological target: Fuc(a1-2)Gal(b1-4)GlcNAc(b1-3)[Fuc(a1-2)Gal(b1-4)GlcNAc(b1-6)]GalNAc
# Outline: as §1
# [4] = biological target: Fuc(a1-2)Gal(b1-4)GlcNAc(b1-3)[Fuc(a1-3)[Gal(b1-4)]GlcNAc(b1-6)]Gal(b1-4)Glc
# Outline: as §1
# [5] = biological target: Fuc(a1-2)Gal(b1-4)GlcNAc(b1-6)GalNAc
# Outline: as §1
# [6] = biological target: Fuc(a1-2)Gal(b1-4)GlcNAc6S
# Outline: as §1
# [7] = biological target: Fuc(a1-2)Gal(b1-4)[Fuc(a1-3)]GlcNAc
# Outline: as §1
# [8] = biological target: Fuc(a1-2)Gal(b1-4)[Fuc(a1-3)]GlcNAc(b1-2)Man(a1-3)[Fuc(a1-2)Gal(b1-4)[Fuc(a1-3)]GlcNAc(b1-2)Man(a1-6)]Man(b1-4)GlcNAc(b1-4)[Fuc(a1-6)]GlcNAc
# Outline: as §1
# [9] = biological target: Fuc(a1-2)Gal(b1-4)[Fuc(a1-3)]GlcNAc(b1-2)[Fuc(a1-2)Gal(b1-4)[Fuc(a1-3)]GlcNAc(b1-4)]Man(a1-3)[Fuc(a1-2)Gal(b1-4)[Fuc(a1-3)]GlcNAc(b1-2)Man(a1-6)]Man(b1-4)GlcNAc(b1-4)GlcNAc
# Outline: as §1
# [10] = biological target: Fuc(a1-2)Gal(b1-4)[Fuc(a1-3)]GlcNAc(b1-3)Gal(b1-4)[Fuc(a1-3)]GlcNAc
# Outline: as §1
# [11] = biological target: Fuc(a1-2)Gal(b1-4)[Fuc(a1-3)]GlcNAc(b1-3)Gal(b1-4)[Fuc(a1-3)]GlcNAc(b1-3)Gal(b1-4)[Fuc(a1-3)]GlcNAc
# Outline: as §1
# [12] = biological target: Fuc(a1-2)Gal(b1-4)[Fuc(a1-3)]GlcNAc(b1-3)GalNAc
# Outline: as §1
# [13] = biological target: Fuc(a1-2)Gal(b1-4)[Fuc(a1-3)]GlcNAc(b1-3)[Neu5Ac(a2-6)Gal(b1-4)GlcNAc(b1-6)]Gal(b1-4)Glc
# Outline: as §1
# [14] = biological target: Fuc(a1-2)Gal3S(b1-4)GlcNAc
# Outline: as §1
# [15] = biological target: Fuc(a1-2)Gal6S(b1-3)GlcNAc
# Outline: as §1
# [16] = biological target: Fuc(a1-2)Gal6S(b1-3)GlcNAc6S
# Outline: as §1
# Fuc(a1-2)Gal6S(b1-4)Glc = biological target: Fuc(a1-2)Gal6S(b1-4)Glc
# Outline: as §1
# [17] = biological target: Fuc(a1-2)Gal6S(b1-4)Glc6S
# Outline: as §1
# Fuc(a1-2)[Gal(a1-3)]Gal = biological target: Fuc(a1-2)[Gal(a1-3)]Gal
# Outline: as §1
# [18] = biological target: Fuc(a1-2)[Gal(a1-3)]Gal(b1-3)GalNAc
# Outline: as §1
# [19] = biological target: Fuc(a1-2)[Gal(a1-3)]Gal(b1-3)GalNAc(b1-3)Gal(a1-4)Gal(b1-4)Glc
# Outline: as §1
# [20] = biological target: Fuc(a1-2)[Gal(a1-3)]Gal(b1-3)GlcNAc
# Outline: as §1
# [21] = biological target: Fuc(a1-2)[Gal(a1-3)]Gal(b1-3)GlcNAc(b1-2)Man(a1-3)[Fuc(a1-2)[Gal(a1-3)]Gal(b1-3)GlcNAc(b1-2)Man(a1-6)]Man(b1-4)GlcNAc(b1-4)GlcNAc
# Outline: as §1
# [22] = biological target: Fuc(a1-2)[Gal(a1-3)]Gal(b1-3)GlcNAc(b1-2)Man(a1-3)[Fuc(a1-2)[Gal(a1-3)]Gal(b1-3)GlcNAc(b1-2)Man(a1-6)]Man(b1-4)GlcNAc(b1-4)[Fuc(a1-6)]GlcNAc
# Outline: as §1
# [23] = biological target: Fuc(a1-2)[Gal(a1-3)]Gal(b1-3)GlcNAc(b1-3)GalNAc
# Outline: as §1
# [24] = biological target: Fuc(a1-2)[Gal(a1-3)]Gal(b1-3)GlcNAc(b1-6)GalNAc
# Outline: as §1
# [25] = biological target: Fuc(a1-2)[Gal(a1-3)]Gal(b1-4)Glc
# Outline: as §1
# [26] = biological target: Fuc(a1-2)[Gal(a1-3)]Gal(b1-4)GlcNAc
# Outline: as §1
# [27] = biological target: Fuc(a1-2)[Gal(a1-3)]Gal(b1-4)GlcNAc(b1-2)Man
# Outline: as §1
# [28] = biological target: Fuc(a1-2)[Gal(a1-3)]Gal(b1-4)GlcNAc(b1-2)Man(a1-3)[Fuc(a1-2)[Gal(a1-3)]Gal(b1-4)GlcNAc(b1-2)Man(a1-6)]Man(b1-4)GlcNAc(b1-4)GlcNAc
# Outline: as §1
# [29] = biological target: Fuc(a1-2)[Gal(a1-3)]Gal(b1-4)GlcNAc(b1-2)Man(a1-3)[Fuc(a1-2)[Gal(a1-3)]Gal(b1-4)GlcNAc(b1-2)Man(a1-6)]Man(b1-4)GlcNAc(b1-4)[Fuc(a1-6)]GlcNAc
# Outline: as §1
# [30] = biological target: Fuc(a1-2)[Gal(a1-3)]Gal(b1-4)GlcNAc(b1-3)GalNAc
# Outline: as §1
# [31] = biological target: Fuc(a1-2)[Gal(a1-3)]Gal(b1-4)GlcNAc(b1-3)[Fuc(a1-2)[Gal(a1-3)]Gal(b1-4)GlcNAc(b1-6)]GalNAc
# Outline: as §1
# [32] = biological target: Fuc(a1-2)[Gal(a1-3)]Gal(b1-4)GlcNAc(b1-6)GalNAc
# Outline: as §1
# [33] = biological target: Fuc(a1-2)[Gal(a1-3)]Gal(b1-4)[Fuc(a1-3)]Glc
# Outline: as §1
# [34] = biological target: Fuc(a1-2)[Gal(a1-3)]Gal(b1-4)[Fuc(a1-3)]GlcNAc
# Outline: as §1
# [35] = biological target: Fuc(a1-2)[Gal(a1-3)]Gal(b1-4)[Fuc(a1-3)]GlcNAc(b1-3)GalNAc
# Outline: as §1
# [36] = biological target: Fuc(a1-2)[Gal(a1-4)]Gal(b1-4)GlcNAc
# Outline: as §1
# [37] = biological target: Fuc(a1-2)[GalNAc(a1-3)]Gal
# Outline: as §1
# [38] = biological target: Fuc(a1-2)[GalNAc(a1-3)]Gal(b1-3)GalNAc(a1-3)[Fuc(a1-2)]Gal(b1-4)GlcNAc
# Outline: as §1
# [39] = biological target: Fuc(a1-2)[GalNAc(a1-3)]Gal(b1-3)GalNAc(b1-3)Gal(a1-4)Gal(b1-4)Glc
# Outline: as §1
# [40] = biological target: Fuc(a1-2)[GalNAc(a1-3)]Gal(b1-3)GlcNAc
# Outline: as §1
# [41] = biological target: Fuc(a1-2)[GalNAc(a1-3)]Gal(b1-3)GlcNAc(b1-2)Man(a1-3)[Fuc(a1-2)[GalNAc(a1-3)]Gal(b1-3)GlcNAc(b1-2)Man(a1-6)]Man(b1-4)GlcNAc(b1-4)GlcNAc
# Outline: as §1
# [42] = biological target: Fuc(a1-2)[GalNAc(a1-3)]Gal(b1-3)GlcNAc(b1-2)Man(a1-3)[Fuc(a1-2)[GalNAc(a1-3)]Gal(b1-3)GlcNAc(b1-2)Man(a1-6)]Man(b1-4)GlcNAc(b1-4)[Fuc(a1-6)]GlcNAc
# Outline: as §1
# [43] = biological target: Fuc(a1-2)[GalNAc(a1-3)]Gal(b1-3)GlcNAc(b1-3)GalNAc
# Outline: as §1
binder,measurement,setting,value
B1,glycan array binding signal (z-score),[1],-0.11
same,glycan array binding signal (z-score),[2],-0.167
same,glycan array binding signal (z-score),[3],-0.134
same,glycan array binding signal (z-score),[4],-0.143
same,glycan array binding signal (z-score),[5],-0.198
same,glycan array binding signal (z-score),[6],-0.16
same,glycan array binding signal (z-score),[7],-0.168
same,glycan array binding signal (z-score),[8],0.046
same,glycan array binding signal (z-score),[9],-0.182
same,glycan array binding signal (z-score),[10],-0.116
same,glycan array binding signal (z-score),[11],-0.183
same,glycan array binding signal (z-score),[12],-0.178
same,glycan array binding signal (z-score),[13],-0.166
same,glycan array binding signal (z-score),[14],-0.171
same,glycan array binding signal (z-score),[15],-0.141
same,glycan array binding signal (z-score),[16],-0.187
same,glycan array binding signal (z-score),Fuc(a1-2)Gal6S(b1-4)Glc,-0.171
same,glycan array binding signal (z-score),[17],-0.069
same,glycan array binding signal (z-score),Fuc(a1-2)[Gal(a1-3)]Gal,-0.199
same,glycan array binding signal (z-score),[18],-0.115
same,glycan array binding signal (z-score),[19],-0.166
same,glycan array binding signal (z-score),[20],5.95
same,glycan array binding signal (z-score),[21],10.6
same,glycan array binding signal (z-score),[22],3.28
same,glycan array binding signal (z-score),[23],5.36
same,glycan array binding signal (z-score),[24],6.96
same,glycan array binding signal (z-score),[25],6.1
same,glycan array binding signal (z-score),[26],6.44
same,glycan array binding signal (z-score),[27],9.46
same,glycan array binding signal (z-score),[28],4.9
same,glycan array binding signal (z-score),[29],5.59
same,glycan array binding signal (z-score),[30],4.81
same,glycan array binding signal (z-score),[31],6.36
same,glycan array binding signal (z-score),[32],-0.151
same,glycan array binding signal (z-score),[33],-0.181
same,glycan array binding signal (z-score),[34],-0.147
same,glycan array binding signal (z-score),[35],-0.062
same,glycan array binding signal (z-score),[36],-0.139
same,glycan array binding signal (z-score),[37],-0.172
same,glycan array binding signal (z-score),[38],-0.151
same,glycan array binding signal (z-score),[39],-0.143
same,glycan array binding signal (z-score),[40],-0.194
same,glycan array binding signal (z-score),[41],-0.108
same,glycan array binding signal (z-score),[42],-0.149
same,glycan array binding signal (z-score),[43],-0.155
